Experimental data published in the supplement of paper PMC4604168 (melanoma cell lines).
Some of the results follow. Most values come without repeats; read them as rough.

tested on: RVH-421; assay: cell count relative to DMSO control; melanoma cells; higher = more viable cells; details: library dose: standard library concentration; 72 h
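Note: cells treated in 1,536-well plates, then fixed and DAPI-stained, with nuclei counted from automated high-throughput microscope images.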

Compound	cell count [%]
COc1cc([C@@H]2c3cc4c(cc3[C@@H](O[C@@H]3O[C@@H]5CO[C@@H](C)O[C@H]5[C@H](O)[C@H]3O)[C@H]3COC(=O)[C@H]23)OCO4)cc(OC)c1O [etoposide] + C=C(c1ccc(C(=O)O)cc1)c1cc2c(cc1C)C(C)(C)CCC2(C)C [Bexarotene] (first compound 0.1 µM, partner dose 10 µM)	97.6
C[C@]1(O)C[C@@H](c2nc(-c3ccc4ccc(-c5ccccc5)nc4c3)c3c(N)nccn32)C1 + C=C(c1ccc(C(=O)O)cc1)c1cc2c(cc1C)C(C)(C)CCC2(C)C [Bexarotene] (first compound 2 µM, partner dose 10 µM)	87.8
C[C@]1(O)C[C@@H](c2nc(-c3ccc4ccc(-c5ccccc5)nc4c3)c3c(N)nccn32)C1 + NC1(c2ccc(-c3nc4ccn5c(=O)[nH]nc5c4cc3-c3ccccc3)cc2)CCC1 [MK2206] (first compound 2 µM, partner dose 2 µM)	94.8
COc1cc([C@@H]2c3cc4c(cc3[C@@H](O[C@@H]3O[C@@H]5CO[C@@H](C)O[C@H]5[C@H](O)[C@H]3O)[C@H]3COC(=O)[C@H]23)OCO4)cc(OC)c1O [etoposide] + Cn1c(Nc2ccc(C(F)(F)F)cc2)nc2cc(Oc3ccnc(-c4ncc(C(F)(F)F)[nH]4)c3)ccc21 [CHIR265] (first compound 0.1 µM, partner dose 0.4 µM)	43.7
Cn1cnc2c(F)c(Nc3ccc(Br)cc3Cl)c(C(=O)NOCCO)cc21 [selumetinib] + O=c1cc(-c2cccc3c2Sc2ccccc2S3)oc(N2CCOCC2)c1 [KU55933] (first compound 0.075 µM, partner dose 5 µM)	79.8
C[C@]1(O)C[C@@H](c2nc(-c3ccc4ccc(-c5ccccc5)nc4c3)c3c(N)nccn32)C1 + Nc1ncn([C@H]2C[C@H](O)[C@@H](CO)O2)c(=O)n1 [decitabine] (first compound 2 µM, partner dose 0.5 µM)	105
COc1cc([C@@H]2c3cc4c(cc3[C@@H](O[C@@H]3O[C@@H]5CO[C@@H](C)O[C@H]5[C@H](O)[C@H]3O)[C@H]3COC(=O)[C@H]23)OCO4)cc(OC)c1O [etoposide] + O=C(Nc1ccccc1)c1cc([N+](=O)[O-])ccc1Cl [GW9662] (first compound 0.1 µM, partner dose 10 µM)	86.4
CCN(CC)CCNC(=O)c1c(C)[nH]c(/C=C2\C(=O)Nc3ccc(F)cc32)c1C [sunitinib] + NC1(c2ccc(-c3nc4ccn5c(=O)[nH]nc5c4cc3-c3ccccc3)cc2)CCC1 [MK2206] (first compound 2 µM, partner dose 2 µM)	63.3
Cn1cnc2c(F)c(Nc3ccc(Br)cc3Cl)c(C(=O)NOCCO)cc21 [selumetinib] + COCC[n+]1c2c(n(Cc3cnccn3)c1C)C(=O)c1ccccc1C2=O [YM155] (first compound 0.075 µM, partner dose 0.002 µM)	63.8
Cn1cnc2c(F)c(Nc3ccc(Br)cc3Cl)c(C(=O)NOCCO)cc21 [selumetinib] + NC1(c2ccc(-c3nc4ccn5c(=O)[nH]nc5c4cc3-c3ccccc3)cc2)CCC1 [MK2206] (first compound 0.075 µM, partner dose 2 µM)	68
COc1cc([C@@H]2c3cc4c(cc3[C@@H](O[C@@H]3O[C@@H]5CO[C@@H](C)O[C@H]5[C@H](O)[C@H]3O)[C@H]3COC(=O)[C@H]23)OCO4)cc(OC)c1O [etoposide] + COc1cc(Nc2ncc(F)c(Nc3ccc4c(n3)NC(=O)C(C)(C)O4)n2)cc(OC)c1OC [Tamatinib] (first compound 0.1 µM, partner dose 2 µM)	74.2
Cn1cnc2c(F)c(Nc3ccc(Br)cc3Cl)c(C(=O)NOCCO)cc21 [selumetinib] + CC(C)C[C@H](NC(=O)[C@H](Cc1ccccc1)NC(=O)c1cnccn1)B(O)O [Bortezomib] (first compound 0.075 µM, partner dose 0.005 µM)	0.846
COc1cc([C@@H]2c3cc4c(cc3[C@@H](O[C@@H]3O[C@@H]5CO[C@@H](C)O[C@H]5[C@H](O)[C@H]3O)[C@H]3COC(=O)[C@H]23)OCO4)cc(OC)c1O [etoposide] + Oc1nc(-c2ccc(C(F)(F)F)cc2)nc2c1CSCC2 [XAV939] (first compound 0.1 µM, partner dose 10 µM)	104
